This note sets out measurements from the supplement of paper PMC5655136.

These are enrichments in a pooled selection; single values are uncertain.
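Also: shRNA barcodes quantified by deep sequencing of PCR amplicons from cellular DNA, counts expressed as percent of each subpool, ratio averaged over two biological duplicates.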

For one data set, the system named is NB7. Kind of data set: fold depletion of shRNA, plasmid library share / infected cells without Dox share (9 days) (ratio); higher = more depleted after infection (more toxic, leaky expression from a Tet-inducible vector; NB7 is a neuroblastoma line without caspase-8). Particulars: shRNA pool: CD95L ORF + CD95L 3'UTR + Venus libraries. As to the method: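 Pooled lethality screen in NB7 neuroblastoma cells infected with Dox-inducible pTIP shRNA libraries. The libraries tile every 21-mer of the Venus, CD95L or CD95 ORF / 3'UTR; each hairpin is the 21-nt sense sequence + CTCGAG loop + antisense. Cells were cultured 9 days with or without 100 ng/ml Dox. shRNA representation was measured by deep sequencing of the genomic inserts, normalised to the total reads per subpool and averaged over technical replicates. Fold depletion is the plasmid library share / infected cells without Dox share (mean of 2 biological replicates), and the -Dox/+Dox share ratio is the mean of 4 replicate pairings; higher values mean more depletion (toxicity).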
Turning to GGACTCATTTCATTCCTAACA, the “fold depletion of shRNA” value was 2.91. On the same count and under the same terms, under CTAAAGAGAGAATGTAGATAT stands 0.581; under CACAGCATCATCTTTGGAGAA, 1.54; under CCCCACTGGCAGCATCTTCAC, 1.75.

In the case of GGACTGTCTTTCAGATACATG, the “fold depletion of shRNA” value worked out at 1.42. Regarding CCACCGCCACCGCCACCACTA, the “fold depletion of shRNA” value was 0.194.

For the sequence CACTACCTGAGCTACCAGTCC, the “fold depletion of shRNA” value came to 1.82. On the same count and under the same terms, for GTGAAATGAAAACATGTAATA the value was 1.16. For the sequence AAAACATGTAATAAAAAGTAT, the “fold depletion of shRNA” value is 0.875.

For TTTCGGCTTATATAAGCTCTA, the “fold depletion of shRNA” value is 1.26. As for AATGCATATCCTGAGCCATCG, the “fold depletion of shRNA” value was 0.577.

For TTTGAATGCTTCCTGACAATC, the “fold depletion of shRNA” value was 2.59.

On to TGCAGTGCTTCGCCCGCTACC, for which the “fold depletion of shRNA” value amounted to 0.857. Take CCAACTTCAAGATCCGCCACA: the “fold depletion of shRNA” value was determined as 2.39.

Take CTCTGGTCAATTTTGAGGAAT: the “fold depletion of shRNA” value was 1.82.

As for TGTTTTCCTATAATATAATAA, the “fold depletion of shRNA” value turned out to be 0.673. AGTGGACCTTGAGACCACAGG: the “fold depletion of shRNA” value worked out at 2.99. On to CTTCGCCCGCTACCCCGACCA, for which the “fold depletion of shRNA” value worked out at 1.27. On to TGCTTTCTGGAGTGAAGTATA, for which the “fold depletion of shRNA” value is 0.914. As to TTCTGGAGTGAAGTATAAGAA, the “fold depletion of shRNA” value was 0.504. Consider GCCGCCGGGATCACTCTCGGC, for which the “fold depletion of shRNA” value was 0.512. Still for that read-out and setting: under TGTCAACGTATCTGAGCTCTC stands 1.27.

For the sequence GTTGCCTTGGTAGGATTGGGC, the “fold depletion of shRNA” value stood at 2.37. In the case of CAGAAGAACGGCATCAAGGCC, the “fold depletion of shRNA” value turned out to be 2.85. Turning to CTGACCCTGAAGCTGATCTGC, the “fold depletion of shRNA” value came to 1.53. The same measure, in the same setting: for GGAGTACAACTACAACAGCCA the value was 3.46. The same measure, in the same setting: under CCATGCCCGAAGGCTACGTCC stands 1.72. For the sequence AGCAGCTACCTGGGGGCAGTG, the “fold depletion of shRNA” value was 0.288. Regarding CGATCACATGGTCCTGCTGGA, the “fold depletion of shRNA” value is 2.5.

CTCGCCGACCACTACCAGCAG: the “fold depletion of shRNA” value came out at 0.745. Turning to CAATTACCCATATCCCCAGAT, the “fold depletion of shRNA” value turned out to be 1.05. The same measure, in the same setting: for CCCGAAGGCTACGTCCAGGAG the value was 0.684; for ACAACCTGCCCCTGAGCCACA, 15.6. For the sequence GACAAGCAGAAGAACGGCATC, the “fold depletion of shRNA” value stood at 1.5.

On to CACAAGCTGGAGTACAACTAC, for which the “fold depletion of shRNA” value turned out to be 1.91. Turning to GGTGCCCATCCTGGTCGAGCT, the “fold depletion of shRNA” value came out at 0.591. Same read-out and setting: for GTACAACTACAACAGCCACAA the value was 5.78; for CTGGTGAACCGCATCGAGCTG, 0.763. In the case of CTACCTGAGCTACCAGTCCGC, the “fold depletion of shRNA” value is 1.48. Turning to TGAGCCATCGGTGAAACTAAC, the “fold depletion of shRNA” value amounted to 3.85. CCTGGTGAACCGCATCGAGCT: the “fold depletion of shRNA” value came out at 0.962. Same read-out and setting: under TCGTGACCACCCTGGGCTACG stands 1.25; under TTGAGACCACAGGGTTCAAAA, 1.6; under GGGATGTTTCAGCTCTTCCAC, 7.59.

Turning to TCAAAGGAGGCCACCACCACC, the “fold depletion of shRNA” value turned out to be 6.52.

TCAAGGAGGACGGCAACATCC: the “fold depletion of shRNA” value amounted to 1.3.

On to CACACAGCATCATCTTTGGAG, for which the “fold depletion of shRNA” value is 0.865. Same read-out and setting: under TATTTAGGCAGATTGAAAAGG stands 2.06.

The data set is the same for the next values; noted with them: shRNA pool: CD95 ORF + CD95 3'UTR + Venus libraries.
On to AATGTCCCATGTAAAACCTGC, for which the “fold depletion of shRNA” value was 0.987.

In the case of TCTGATGTTGACTTGAGTAAA, the “fold depletion of shRNA” value turned out to be 1.05. Same read-out and setting: for TCTAAATTACCTCTGATAATT the value was 0.795; for TCAGAACTTGGAAGGCCTGCA, 1.32. On the same count and under the same terms, for CACTACCTGAGCTACCAGTCC the value was 2.77; for ATGCAATTAGTGTTTGAAAAG, 0.984; for ATAAAATAGATTCTTATTTTT, 0.961.

As for CTAAATTACCTCTGATAATTC, the “fold depletion of shRNA” value is 0.63. As for CGTTTAAATATCTTTGAAAGT, the “fold depletion of shRNA” value worked out at 0.652. Consider CTGGTCGAGCTGGACGGCGAC, for which the “fold depletion of shRNA” value was 0.966.

As for TGCAGTGCTTCGCCCGCTACC, the “fold depletion of shRNA” value was determined as 1.3. Consider CCAACTTCAAGATCCGCCACA, for which the “fold depletion of shRNA” value came out at 1.29. As for GCTTTGTGACATGTCATGAAC, the “fold depletion of shRNA” value was 2.93. Still for that read-out and setting: for GATGAACCAGACTGCGTGCCC the value was 2.44; for ATCAAAGATGATAAAATAGAT, 0.971. In the case of CAAGGGATTGGAATTGAGGAA, the “fold depletion of shRNA” value stood at 1.75. With ATGTCCAAGACACAGCAGAAC, the “fold depletion of shRNA” value amounted to 1.13. On the same count and under the same terms, under CTTCGCCCGCTACCCCGACCA stands 0.899; under TTTGTAACTCTACTGTATGTG, 0.846. As to TAATTCTAGAGATTTTACCAT, the “fold depletion of shRNA” value came out at 2.02.

As to GCCGCCGGGATCACTCTCGGC, the “fold depletion of shRNA” value was found to be 0.933. Still for that read-out and setting: for GCAGAAAGCACAGAAAGGAAA the value was 0.741; for AAGGACATGGCTTAGAAGTGG, 0.858. The same measure, in the same setting: under CTACGTTTAAATATCTTTGAA stands 1.32; under TACCTCAAAGACCTTTGCACA, 2.22.

Take CTTATTTTTCCCCCACCCCCG: the “fold depletion of shRNA” value is 2.1. Still for that read-out and setting: under TAATTGTTTGGGTGAAGAGAA stands 5.48; under CAGAAGAACGGCATCAAGGCC, 0.682. Same read-out and setting: for CTGACCCTGAAGCTGATCTGC the value was 0.837; for CGAAAGAATGGTGTCAATGAA, 0.766; for GATTCTCCTTACTACTATCCT, 1.13. Regarding GAATTTAAATAAGGCTCTACC, the “fold depletion of shRNA” value is 0.901. As for GGAGTACAACTACAACAGCCA, the “fold depletion of shRNA” value was found to be 1.23. With CCATGCCCGAAGGCTACGTCC, the “fold depletion of shRNA” value was 1.15. Consider GAAGCGTATGACACATTGATT, for which the “fold depletion of shRNA” value came to 0.858.

CACAGACAAAGCCCATTTTTC: the “fold depletion of shRNA” value turned out to be 1.6. The same measure, in the same setting: under ACAAACTTCATCAAGAGTAAA stands 0.854; under AATGGTAAAATCATCATCTGG, 2.46; under CTGATGTTGACTTGAGTAAAT, 1.71. On the same count and under the same terms, for TATTATATATGTGTATGCATT the value was 1.47. For the sequence AGGAGGACGGCAACATCCTGG, the “fold depletion of shRNA” value was 0.714. As for ACGTCTGTTGCTAGATTATCG, the “fold depletion of shRNA” value is 2.76. Take AATGCAGTGGCATGCTAAGTA: the “fold depletion of shRNA” value came to 0.901. Take TTTTATCATTTATTAGCGCTG: the “fold depletion of shRNA” value is 1.73.

With CGATCACATGGTCCTGCTGGA, the “fold depletion of shRNA” value is 1.83. Take CTCGCCGACCACTACCAGCAG: the “fold depletion of shRNA” value was found to be 0.799. Same read-out and setting: for GTGAATTCACATAGAAAACAT the value was 1.11; for AAGATTAAGATTATGCTCTGG, 1.46. The same measure, in the same setting: for GAAATCCAAAGCTTGGTCTAG the value was 1.68; for GAATGGTGTCAATGAAGCCAA, 3.48; for ATTACTAGAGCTTTGCCACCT, 0.757. Still for that read-out and setting: under GTTTATAACTCTGAGAAGATC stands 2.03. Regarding AGATGAGATCAAGAATGACAA, the “fold depletion of shRNA” value turned out to be 2.1. Take CCCGAAGGCTACGTCCAGGAG: the “fold depletion of shRNA” value stood at 0.725. Take AAAACATTAAATTATAATGTT: the “fold depletion of shRNA” value came to 0.722.

In the case of GACAAGCAGAAGAACGGCATC, the “fold depletion of shRNA” value stood at 0.984. On to CACAAGCTGGAGTACAACTAC, for which the “fold depletion of shRNA” value came out at 1.73.

With ACCTCTCCATTTTTGCCTTGG, the “fold depletion of shRNA” value stood at 8.71.

With GGTGCCCATCCTGGTCGAGCT, the “fold depletion of shRNA” value was found to be 0.812. Same read-out and setting: for TGTATTAAATGTGAATTTTAA the value was 1.02; for TTTGCACAGTTTATTGGTGTC, 2.99. On to CCAAATGTGAACATGGAATCA, for which the “fold depletion of shRNA” value is 0.526. For GAGTATATGCAATTAGTGTTT, the “fold depletion of shRNA” value was found to be 0.856. For AAATACTGCTTGGTTTTTTAC, the “fold depletion of shRNA” value turned out to be 2.32. For the sequence ACAAGCAGAAGAACGGCATCA, the “fold depletion of shRNA” value is 0.81. In the case of GTACAACTACAACAGCCACAA, the “fold depletion of shRNA” value came to 2.51. Regarding AAATGTGAATTTTAAGAAATA, the “fold depletion of shRNA” value is 0.679. Regarding GAAGTGGAAATAAACTGCACC, the “fold depletion of shRNA” value was 1.3.

With CTGGTGAACCGCATCGAGCTG, the “fold depletion of shRNA” value turned out to be 0.57. Still for that read-out and setting: for TCTGGTTCTTACGTCTGTTGC the value was 2.27. Still for that read-out and setting: under TTGCTCTTGTCATACCCCCAA stands 6.31; under ATTTGAGTGCAGAATTTAAAT, 1.09; under ATGACCTTTTGCTGAAATATC, 1.58.

Regarding TACAGTTGAGACTCAGAACTT, the “fold depletion of shRNA” value is 1.62. As to CTAAGTCAAGTTAAAGGCTTT, the “fold depletion of shRNA” value was 0.794. Still for that read-out and setting: under CTACCTGAGCTACCAGTCCGC stands 1.6.

CCTACGTTTAAATATCTTTGA: the “fold depletion of shRNA” value amounted to 0.762.

In the case of CCCCCACCCCCGAAAATGTTC, the “fold depletion of shRNA” value is 2.93. Same read-out and setting: for CCTGGTGAACCGCATCGAGCT the value was 0.943; for TCGTGACCACCCTGGGCTACG, 0.686; for CAAGGATGTTTAAAATCTAGT, 0.471. Still for that read-out and setting: for TACATTTTATCATTTATTAGC the value was 0.718; for TCAAGGAGGACGGCAACATCC, 1.08; for GCCTTGGTGCTCATCTTAATG, 1.31. AGATTCTTATTTTTCCCCCAC: the “fold depletion of shRNA” value worked out at 1.63. As for TATGATTCTGTAGTATGAATG, the “fold depletion of shRNA” value is 1.73.
